Assay results from the RNAGym collection of RNA variant scans (doi:10.1101/gad.245936.114).
Variants at the background level are over-represented here.

B1: tRNA (parent)
chain: CUCUCGGUAGCCAAGUUGGUUUAAGGCGCAAGACUUUAAUUUAUCACUACGAAAUCUUGAGAUCGGGCGUUCGACUCGCCCCCGGGAGAUUUUUUCCUCGAGCAA

Variants of: B1
Assay: nonsense suppression (GFP-seq) (ratio to wild type); higher = more function; SUP4oc tRNA, yeast GFP reporter sort-seq
Outline: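 Yeast carrying genome-integrated SUP4oc tRNA variants from a library with ~3% random mutations were grown in raffinose/galactose medium with 80 mg/L adenine. Each strain also carried a galactose-driven GFP ochre reporter and RFP. Cells were sorted into GFP/RFP bins, and each bin was Illumina-sequenced (phred ≥30). Nonsense suppression (GFPSEQ) is the bin median GFP/RFP, weighted by each variant's estimated cell share per bin, relative to wild-type SUP4oc; variants needed ≥100 reads and ≥30 cells.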

Row | Variant | nonsense suppression
1 | G25C U58G | ≤ 0.026
2 | A24U C72G | 0.03
3 | A24C G28C A30G | ≤ 0.026
4 | G26A G88U | ≤ 0.026
5 | G25A G32U | ≤ 0.026
6 | A24G A33G U70A G86A | ≤ 0.026
7 | A24G C79U G86C | ≤ 0.026
8 | G25U G67U G86A | ≤ 0.026
9 | G25C C80A | ≤ 0.026
10 | A24G C27U | ≤ 0.026
11 | A24G C27G | ≤ 0.026
12 | A24U A30G U57G G67U | ≤ 0.026
13 | A24G G67U | ≤ 0.026
14 | G25C U70G | ≤ 0.026
15 | G25C U63A | ≤ 0.026
16 | G25C U63C | ≤ 0.026
17 | G25U A31G | ≤ 0.026
18 | A24U C29U G73A C77A G78A | ≤ 0.026
19 | A23U U63A | 0.207
20 | A24U A60C G67A | ≤ 0.026
21 | A24U G32A U55A | ≤ 0.026
22 | A24C U55A | ≤ 0.026
23 | A24C U55C | 0.365
24 | A24C U71C | 0.0704

Row | Variant | nonsense suppression
25 | A24G C56A U76C | ≤ 0.026
26 | A24C A31G A62C U71C | ≤ 0.026
27 | A24C U63A A87U | ≤ 0.026
28 | A24C A54C | 0.198
29 | A24G C79U | 0.0352
30 | A24G A33U C77A | ≤ 0.026
31 | G25U G67C C79A | ≤ 0.026
32 | A23U U57A C82A A87G | ≤ 0.026
33 | G25A G28A A87C | ≤ 0.026
34 | G25C U57C G84A | ≤ 0.026
35 | A24U U57C G88C | ≤ 0.026
36 | G25A U58A A74U | ≤ 0.026
37 | A24G U35C | ≤ 0.026
38 | A24U C64U | ≤ 0.026
39 | G26A G66A C77G C79G C82U | ≤ 0.026
40 | A24U G61C C75G | ≤ 0.026
41 | A24U G67A G78U | ≤ 0.026
42 | A24U C29G U35C A62U | ≤ 0.026
43 | G25A C56A | ≤ 0.026
44 | A24C G73C G84C | ≤ 0.026
45 | A24U A62C C80A G88C | ≤ 0.026
46 | G25A A30G U58A | ≤ 0.026
47 | G25A U63C | ≤ 0.026
48 | A24U A54G A62U C75A C77G G78U G86A | ≤ 0.026

Row | Variant | nonsense suppression
49 | A24G A62G | ≤ 0.026
50 | G25A C27A | ≤ 0.026
51 | G25A C64A | ≤ 0.026
52 | A24G C72U C75G | ≤ 0.026
53 | A24U A33U | ≤ 0.026
54 | G26A C77A | ≤ 0.026
55 | G26A C77U | ≤ 0.026
56 | A24C A30G G65C G69A C83A A87C | ≤ 0.026
57 | A24U U63C | 0.0344
58 | A24C G67U | 0.0289
59 | A24C G67C | ≤ 0.026
60 | A24C C27G | ≤ 0.026
61 | A24G C77U | ≤ 0.026
62 | A24C C68U | 0.765
63 | A24C C29G A60G G65C | ≤ 0.026
64 | A24G C34U G67C U76A | ≤ 0.026
65 | A24G G69U C79G | ≤ 0.026
66 | A24C G73A G86U | ≤ 0.026
67 | G25A G65A C83G | ≤ 0.026
68 | A24U G65C C80U | ≤ 0.026
69 | A24G G61A U76C | 0.0509
70 | G25U G61A C82G G88U | ≤ 0.026
71 | G25C C34G | ≤ 0.026
72 | A24U A30U U57G A74C G88C | ≤ 0.026

Row | Variant | nonsense suppression
73 | G26A C56A | ≤ 0.026
74 | A24G G61A C72G | ≤ 0.026
75 | G25C C79U | ≤ 0.026
76 | A24G A33C C79G | ≤ 0.026
77 | G26A A31C | ≤ 0.026
78 | G25U U71G G84U | ≤ 0.026
79 | G25U G61A G67U | ≤ 0.026
80 | G25U G28U G65C | ≤ 0.026
81 | G25C A54U | 0.0708
82 | A24U G59C | ≤ 0.026
83 | A24U U58G G61C | ≤ 0.026
84 | A24C C27G C29U | ≤ 0.026
85 | A24G C56G G59C G66A G73C | ≤ 0.026
86 | G25C U71C A74G | ≤ 0.026
87 | A24G A30C A62U | ≤ 0.026
88 | G25U G26C C27U U57A | ≤ 0.026
89 | G25U C34A U71A U76A | ≤ 0.026
90 | G25U G28A | ≤ 0.026
91 | G25C A31C G73A | ≤ 0.026
92 | A24U A54U | 0.208
93 | A24G U35G A87U | ≤ 0.026
94 | G25U G32A C34G | ≤ 0.026
95 | G25C U57C A62C | ≤ 0.026
96 | G25U G66U G78C | ≤ 0.026

Row | Variant | nonsense suppression
97 | G26A A87C | ≤ 0.026
98 | G26A G65A G86A | ≤ 0.026
99 | A24G U57C | ≤ 0.026
100 | A24U A74G | ≤ 0.026
101 | G25A G88U | ≤ 0.026
102 | G26C A30C | ≤ 0.026
103 | A24G C29A A54U C80G | ≤ 0.026
104 | A24U A60G G65U G88C A89G | ≤ 0.026
105 | G26C A31U G84A | ≤ 0.026
106 | A24U C27U A33G | ≤ 0.026
107 | A24U G85A | 0.327
108 | A24U G25A G67C | ≤ 0.026
109 | A23U G84C | ≤ 0.026
110 | A24G G25U U35G C64A G88U | ≤ 0.026
111 | A24U U35G U55G C77A | ≤ 0.026
112 | G25A G73C | ≤ 0.026
113 | A24U U71G | ≤ 0.026
114 | G25C G85C | ≤ 0.026
115 | G25C G69U | ≤ 0.026
116 | G25C G61U G67U | ≤ 0.026
117 | G26A C56G U76G | ≤ 0.026
118 | G26A A31G C34U A62G | ≤ 0.026
119 | A24G G78A A87C | ≤ 0.026
120 | G25U C68G | ≤ 0.026

Row | Variant | nonsense suppression
121 | G25C G32A A54G G85U | ≤ 0.026
122 | A24G G67A C81A | ≤ 0.026
123 | A24G G66C A74C G84C A87U | ≤ 0.026
124 | A24G G25U | ≤ 0.026
125 | G25C A33U | ≤ 0.026
126 | A24U C79U C83G | ≤ 0.026
127 | A23U U35C U70C G88A | ≤ 0.026
128 | G25C U55A C80U | ≤ 0.026
129 | G25U U35C | ≤ 0.026
130 | G25U U35G | ≤ 0.026
131 | G25U G59C | ≤ 0.026
132 | G25A C72U | ≤ 0.026
133 | A24C G69U | ≤ 0.026
134 | G26C A31C | ≤ 0.026
135 | G26A C72G | ≤ 0.026
136 | A24G G61U U76A | ≤ 0.026
137 | A24G G66C | ≤ 0.026
138 | A24U C29U G66A | ≤ 0.026
139 | G26A U70C C72G U76A C81G | ≤ 0.026
140 | A24U U57G U58G | ≤ 0.026
141 | A24U G78U | 0.0565
142 | G26A G66U | ≤ 0.026
143 | A24C A60U U63A | 0.112
144 | A23U U35G | ≤ 0.026

Row | Variant | nonsense suppression
145 | A24G U55G | ≤ 0.026
146 | A24U U55C G73U G85A | ≤ 0.026
147 | A23U U76C | ≤ 0.026
148 | A23U U76A | ≤ 0.026
149 | A24C G66U | ≤ 0.026
150 | A24G G26U G32C G78U C79G | ≤ 0.026
151 | A24C C79G G84C | ≤ 0.026
152 | A24G G26A C29A C79A | ≤ 0.026
153 | G25C C34A A87G | ≤ 0.026
154 | G25A A30G A62G A74U C79A | ≤ 0.026
155 | G25A U63C C72G | ≤ 0.026
156 | G25C U71C | ≤ 0.026
157 | A24C C75G | 1.11
158 | G25U G26A | ≤ 0.026
159 | A24C G25U | ≤ 0.026
160 | A24U G73C | ≤ 0.026
161 | G26A C34A U70G | ≤ 0.026
162 | A24C U63C | 0.205
163 | A24G A30G C68U G86U | ≤ 0.026
164 | A24U U70G A74C C81U C82U | ≤ 0.026
165 | G25A C75G G78A | ≤ 0.026
166 | A24C G26U C83A | ≤ 0.026
167 | A23U U63G C80U | ≤ 0.026
